Source: the supplement of paper PMC12355420
Counter-ions that a name gives are not always drawn. Some of the results follow. Many values rest on one well or one pass, so single values are uncertain.

System: HeLa VPS33A reporter cells
Experiment: relative cell viability (CellMask signal) vs DMSO (fraction of DMSO); HeLa model of a glycosaminoglycan (GAG) storage disease; KI is knock-in and KO knock-out; SDC1 is syndecan 1; higher = less cytotoxic
Conditions: 50 µM; 24 h
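Also: primary screen of an FDA-approved drug library in HeLa reporter cells in 96-well format, CellMask signal normalized to DMSO-treated wells set as 1, under 0.5 deemed highly cytotoxic.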

Row | SMILES | relative cell viability
1 | CC1(C)O[C@@H]2C[C@H]3[C@@H]4CCC5=CC(=O)C=C[C@]5(C)[C@H]4[C@@H](O)C[C@]3(C)[C@]2(C(=O)CO)O1 [Desonide] | 1.07
2 | C=CC1=C(C(=O)O)N2C(=O)[C@@H](NC(=O)/C(=N\O)c3csc(N)n3)[C@H]2SC1 [Cefdinir] | 1.41
3 | CCCCCCCCCCCCCCCC(=O)O [Palmitic acid] | 0.957
4 | CCC[S+]([O-])c1ccc2[nH]c(NC(=O)OC)nc2c1 (stereo not drawn) [Albendazole Oxide] | 0.637
5 | O=C(O)[C@@H]1C[C@@H](O)CN1 [L-Hydroxyproline] | 0.969
6 | CCOc1ccccc1OC(c1ccccc1)C1CNCCO1 (stereo not drawn) [Reboxetine mesylate] | 0.954
7 | C[C@H](CCC(=O)O)[C@H]1CC[C@H]2[C@@H]3CC[C@@H]4C[C@H](O)CC[C@]4(C)[C@H]3C[C@H](O)[C@]12C [Deoxycholic acid] | 1.07
8 | C[C@H]1C[C@@H]2[C@H]([C@@H](O)C[C@@]3(C)[C@H]2CC[C@]3(O)C(=O)CO)[C@@]2(C)C=CC(=O)C=C12 [Methylprednisolone] | 0.988
9 | Oc1ncnc2[nH]ncc12 [Allopurinol] | 1.28
10 | O=c1[nH]cnc2c1ncn2[C@@H]1O[C@H](CO)[C@@H](O)[C@H]1O [Inosine] | 1.05
11 | COc1cc(-c2oc3cc(O)cc(O)c3c(=O)c2O)ccc1O [Isorhamnetin] | 0.988
12 | COC(c1ccccc1)(c1ccccc1)[C@H](Oc1nc(C)cc(C)n1)C(=O)O [Ambrisentan] | 0.912
13 | C[C@@H]1C[C@H]2[C@@H]3C[C@H](F)C4=CC(=O)C=C[C@]4(C)[C@@]3(F)[C@@H](O)C[C@]2(C)[C@@]1(O)C(=O)CO [Flumethasone] | 0.901
